The values that follow come from PMC10726135.

This is one part of the list. At the low end of the ranking, values are background and their order means little. Measured with an extract: partners may take part in the binding.

The target in the assay is T1, HNF4alpha2 (COS-7 nuclear extract) (UniProt P41235).
T1 sequence: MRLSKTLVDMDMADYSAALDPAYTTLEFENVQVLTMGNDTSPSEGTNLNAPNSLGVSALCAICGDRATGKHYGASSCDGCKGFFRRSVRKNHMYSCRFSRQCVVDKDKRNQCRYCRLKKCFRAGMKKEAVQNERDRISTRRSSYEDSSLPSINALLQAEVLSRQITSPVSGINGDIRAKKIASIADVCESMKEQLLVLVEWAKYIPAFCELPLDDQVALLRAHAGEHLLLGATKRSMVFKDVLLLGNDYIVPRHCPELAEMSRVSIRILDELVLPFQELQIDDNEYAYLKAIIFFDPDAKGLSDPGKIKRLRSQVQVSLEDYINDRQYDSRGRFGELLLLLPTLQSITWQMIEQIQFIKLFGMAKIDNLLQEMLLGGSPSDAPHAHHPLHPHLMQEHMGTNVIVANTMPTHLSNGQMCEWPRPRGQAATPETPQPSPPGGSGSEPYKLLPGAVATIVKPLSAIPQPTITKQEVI
Description: protein-binding microarray. Conditions: COS-7 nuclear extract on double-stranded Agilent 4x180k PBM; binding buffer, salt, pH and temperature not given; high values mean tight binding; double strand, one strand shown; sequences stand for … in …GCCTAGGGAGATTAGAGTATCGGTCGA
As for AGGGAAATGCAAACATTTCTGGAATGTCCA, the binding signal (log2 normalized intensity) came to 0.0104.

For the sequence AGAGAAGATTCCAGAGGGAGGGAGGGTGGA, the binding signal (log2 normalized intensity) was -1.21.

As for TATCTTACCTCCTTCTCCCCCATGCCCCTG, the binding signal (log2 normalized intensity) was 5.28.

Regarding ACCTGGAACTGAAAGAGACCTTTGACATCA, the binding signal (log2 normalized intensity) came to 4.5.

Turning to CATCTGATAGCTAAACCAGATACGTGGGTC, the binding signal (log2 normalized intensity) stood at 0.854.

Take ATCTATTTTCTATTTCCACTGAGGTCAAGA: the binding signal (log2 normalized intensity) was 2.09.

With TGTGGTTAAGACTCAAAGTTCAGTCGAATT, the binding signal (log2 normalized intensity) was 2.16.

As to TCTTAGAGGCACCCATCCCTTTGCAATAAA, the binding signal (log2 normalized intensity) came out at 1.62.

Turning to TCTCCTAACTATGGTCACGCGGCCAAAATG, the binding signal (log2 normalized intensity) was -1.21.

For CAAAAATATCTTTGTCTCAGGAACTTTGTT, the binding signal (log2 normalized intensity) came to 1.85.

With ATGCCAGCTAAGATCAGTAGCTAGGAGACA, the binding signal (log2 normalized intensity) is -1.17.

In the case of CATTGCAAATTGGATGTTGAACCTCTGTCC, the binding signal (log2 normalized intensity) is 3.15.

Regarding GGAGGGGAAGCTGGGCAGGCGCCGACTGCC, the binding signal (log2 normalized intensity) was -1.15.

Take AAAACATTGTACCTTCTACCGTACCTAGGA: the binding signal (log2 normalized intensity) was -0.718.

GGGGGTCAGAAGTCCAACATTAGTATCACT: the binding signal (log2 normalized intensity) was found to be 3.82.

GTCCATCACCTGGCTCTGAAAAACAAAATG: the binding signal (log2 normalized intensity) is -0.612.

As for TTGTCTTTTCGGAAGAACTGGTTCTGTGGA, the binding signal (log2 normalized intensity) came to 1.81.

Take GTCTTTGCCCCTGGACTTTGAATTTCCCCA: the binding signal (log2 normalized intensity) worked out at 4.54.

On to AACTAGGGTTCCAAGACCAAGCAAGCCAGT, for which the binding signal (log2 normalized intensity) is -1.15.

TTACCATATTTACTTATGGTTTGACCCTGC: the binding signal (log2 normalized intensity) stood at 4.65.

For AGATGTTATTACTTAATGCTTTGAATCCTT, the binding signal (log2 normalized intensity) amounted to 0.398.

As to ACTTGGGTTTATGGCTTATGCATGTTTATG, the binding signal (log2 normalized intensity) worked out at 2.18.

Consider CCCCAAATTCCTTTCAAACTGTATTGCTCA, for which the binding signal (log2 normalized intensity) was 1.07.

AGATAGGTTAAAATTTATCTATTGGGTACA: the binding signal (log2 normalized intensity) was 1.42.

As to CTGTCTTCATCCTGAGAGGGCTCAAGGTCT, the binding signal (log2 normalized intensity) is 1.49.

Take CTGGAATGTCACAGGGATTACGATCCTGCC: the binding signal (log2 normalized intensity) was -0.996.

Regarding CCTTCACAAATTAGACAAGGTTTGTAACAA, the binding signal (log2 normalized intensity) was determined as 1.01.

For the sequence CCCCAATCAGGTTTCTCAAGTGATCGAAGG, the binding signal (log2 normalized intensity) was 1.59.

With TGAGCAAGATAATGACTAAGGCAGGGAAGG, the binding signal (log2 normalized intensity) is -1.08.

On to CGATGGGCTGGCCCTGAGCCAAGGGAGCAC, for which the binding signal (log2 normalized intensity) was -1.19.

As for ATGTAAATAAGAGCTTTGCATAAGCCAGAC, the binding signal (log2 normalized intensity) is -1.23.

As to CTGGGAAGATTAAGGAAGGAAGGTGCTTAT, the binding signal (log2 normalized intensity) was -0.85.

In the case of ACCTTTGTTCACAGTGACGTTCTGCCCCTT, the binding signal (log2 normalized intensity) stood at 4.02.

Regarding GACCTCAGCCCTCAGGGGCCTTCAGATAAA, the binding signal (log2 normalized intensity) is -0.808.

For GAAGCTTTCTGAGAAACTTCTTTGTGATGT, the binding signal (log2 normalized intensity) was found to be 0.632.

For the sequence GTCCGCCCTTCCCCGCTCTCCCCGCCCCCT, the binding signal (log2 normalized intensity) was determined as 6.53.

On to CTGACCTACCTGACCTGGCATACTACAGAA, for which the binding signal (log2 normalized intensity) is -1.1.

ATCACTCCTGGTTGGCAAACAAAAAGCTCT: the binding signal (log2 normalized intensity) is -1.15.

Regarding GGCAGCAAGTATTCAAGAAAGGGGCAAAGT, the binding signal (log2 normalized intensity) came out at 2.14.

Regarding TGGGAATTGGGATGGCAGCTTCATTCCAGC, the binding signal (log2 normalized intensity) was -1.11.
